Measurements reported in PubChem BioAssay AID1347120 (National Center for Advancing Translational Sciences (NCATS), 2019).
Out of some 390,000 compounds screened, about 930 (0.24%) were called active. The shares of active, inactive and inconclusive entries below differ from those in the screen. Calls follow the shape of the dose curve; as a rule, active = well fitted activation curve with a large enough effect; inconclusive = small, poorly fitted or top-dose-only effect; inactive = no such curve, though single readings can be large or run the other way. Where the call is inconclusive, the potency comes from a doubtful curve fit.

Assay: qHTS for Suppressors of FUS Proteinopathy: Primary screen using FUS-linked yeast assay; also: nearly all actives have a fitted effect of over 55% in size;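 as to growth rescue (activation): plate controls were DMSO vehicle for no effect and reference control for full effect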
Conditions: S. cerevisiae FUS-expressing, OD600, 24 h; Potency: growth rescue; growth rescue (activation): at 76.6 µM (top of the series)
Summary of the method: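 Toxicity suppression screen in FUS-yeast. Cells induced with 2% galactose, starting OD 0.005, treated 24hr at 30C with compounds at multiple final concentrations; growth by OD600.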
Potency is read from the fitted curve at half-maximal effect; tags tell the direction and shape of the fitted curve.

Row | SMILES | Potency | growth rescue (activation)
1 | Cc1ccc(C(=O)NNC(=O)c2ccc(S(=O)(=O)N3CCCCC3)cc2)cc1 | inactive | 
2 | Cc1ccc(NC(=O)CSc2nc3ccc(NC(=O)c4cccs4)cc3s2)c(C)c1 | inconclusive: 28.2 µM [activator, single point] | 
3 | CC(CC(=O)Nc1ccc2c(c1)c(=O)n(C)n2-c1ccccc1F)c1ccccc1 (stereo not given) | inactive | 
4 | CN(CCOc1ccc(Cl)cc1)C(=O)c1cc(S(=O)(=O)N2CCOCC2)ccc1N1CCCC1 | inconclusive: 17.8 µM [activator, single point] | 
5 | COc1ccc(-c2csc(CCN3N=C(C)CC3=O)n2)cc1 | inconclusive: 20 µM [activator, partial curve, poor fit] | 
6 | CCOc1ccc(CCNC(=O)C2CCN(C(=O)N3CC(CC)Oc4ccc(C)cc43)CC2)cc1 (stereo not given) | inconclusive: 20 µM [activator, partial curve, poor fit] | 
7 | Fc1ccc(C(c2nnnn2Cc2cccs2)N2CCN(C3CCCC3)CC2)cc1 (stereo not given) |  | inconclusive: -28.2% [activator]
8 | O=C(CN1C(=O)c2ccccc2S1(=O)=O)Nc1ccc(S(=O)(=O)N2CCCCCC2)cc1 | inconclusive: 25.1 µM [activator, single point] | 
9 | COc1ccc(C2c3cccn3CCN2S(=O)(=O)c2ccccc2[N+](=O)[O-])cc1OC (stereo not given) | inconclusive: 31.6 µM [activator, single point] | 
10 | COc1cccc(C(O)c2nc(-c3ccccc3C)cs2)c1 (stereo not given) | inactive | 
11 | Cc1cccn2cc(-c3cccc(NS(=O)(=O)c4ccc(Cl)c(Cl)c4)c3)nc12 | inconclusive: 50.1 µM [activator, single point] | 
12 | Cc1cccc(-c2nc(CCNC(=O)Cc3ccc(F)cc3)cs2)c1 | inactive | 
13 | CC(=O)Nc1sc2c(c1-c1nc3ccccc3s1)CCN(C(C)C)CC2 | inactive | 
14 | CC(=O)N1CCC2(CC1)C/C(=N\NC(=S)Nc1ccc(C)cc1)c1cc(O)ccc1O2 | inconclusive: 50.1 µM [activator, single point] | 
15 | CC(C)CC(=O)NC(NC(=S)Nc1sc2c(c1C#N)CCCC2)C(Cl)(Cl)Cl (stereo not given) | inconclusive: 17.8 µM [activator, partial curve, poor fit] | 
16 | O=C(CN1CCN(Cc2ccccc2Cl)C1=O)NCc1ccccc1Cl | inactive | 
17 | COc1ccc(-c2c(C#N)c(SCC(=O)Nc3ccccc3C)nc(C)c2C(=O)Nc2ccccc2)cc1OC | inconclusive: 11.2 µM [activator, partial curve, poor fit] | 
18 | Cc1cc(C)n2c(SC/C(O)=C(\C#N)c3nc4ccccc4[nH]3)nnc2n1 | inconclusive: 12.6 µM [activator, partial curve, poor fit] | 
19 | CCn1c2ccccc2c2cc(NC(=O)CSc3nnc(-c4ccccc4OC)n3N)ccc21 | inconclusive: 50.1 µM [activator, partial curve, poor fit] | 
20 | Cn1nc2c3ccccc3n(Cc3ccccc3)c2nc1=S | inconclusive: 11.2 µM [activator, single point] | 

Row | SMILES | Potency | growth rescue (activation)
21 | COc1cc(CCC(=O)NCc2ccc(S(N)(=O)=O)cc2)cc(OC)c1OC | inactive | 
22 | CC1=Nc2cc(C(=O)N3CCCC3)ccc2Sc2c(C)ccc(C)c21 | inconclusive: 28.2 µM [activator, partial curve, poor fit] | 
23 | C=CCN1C(=O)[C@@H](CC(=O)NCC23CC4CC(CC(C4)C2)C3)[C@]2(C(=O)OCC)CCCCC/C=C/12 | inconclusive: 17.8 µM [activator, partial curve, poor fit] | 
24 | COc1cc2cc(CCCOC(=O)c3ccc(C(F)(F)F)cc3)oc(=O)c2cc1OC | inconclusive: 28.2 µM [activator, single point] | 
25 | CNc1nc(SCc2ccccc2Cl)nc2c1CCCC2 | inconclusive: 3.16 µM [activator, full curve, poor fit] | 
26 | COc1nc2c(C)cccc2cc1-c1noc(-c2ccco2)n1 | inconclusive: 0.891 µM [activator, full curve, poor fit] | 
27 | COc1ccc(C2C3=C(CC(C)(C)CC3=O)Oc3ncn(Cc4ccco4)c(=N)c32)cc1 (stereo not given) | inconclusive: 44.7 µM [activator, single point] | 
28 | O=C(CCn1c(=O)c2cccn2c2ccc(F)cc21)NCc1ccccc1F | inactive | 
29 | O=C(CSc1nnc(SCc2cccc3ccccc23)s1)Nc1ccc(Oc2ccccc2)cc1 | inactive | 
30 | COc1ccc(NC(=O)Cn2c(=O)oc3cc(S(=O)(=O)NC(C)C)ccc32)cc1OC | inactive | 
31 | O=C(NCc1ccccc1F)C(=O)NCC1OCCCN1S(=O)(=O)c1cccs1 (stereo not given) | inconclusive: 3.55 µM [activator, partial curve, poor fit] | 
32 | CN1C(=O)C2C(c3ccc(N(C)C)cc3)NN(Cc3ccccc3)C2C1=O (stereo not given) | inactive | 
33 | CCOC(=O)[C@@]12CCCC=C1N(CCc1ccc(Cl)cc1)C(=O)[C@H]2CC(=O)N1CCC(c2ccccc2)CC1 | inconclusive: 20 µM [activator, partial curve, poor fit] | 
34 | O=C1CCC/C(=N/NC(=O)c2cc(NS(=O)(=O)c3cccs3)cc(NS(=O)(=O)c3cccs3)c2)C1 | inconclusive: 39.8 µM [activator, partial curve, poor fit] | 
35 | CC(=O)N1CCN(C(=S)c2ccc(-c3ccc(Cl)cc3)o2)CC1 | inconclusive: 50.1 µM [activator, single point] | 
36 | CCc1ccc(CN(C)C(=O)c2cc(COc3cncc(Cl)c3)on2)cc1 | inactive | 
37 | COc1ccccc1C(=O)COC(=O)C(NC(=O)Cc1ccccc1)C(C)C (stereo not given) | inconclusive: 50.1 µM [activator, single point] | 
38 | COc1ccc(Br)cc1CNC(=O)Nc1cccs1 | inconclusive: 0.891 µM [activator, full curve, poor fit] | 
39 | CCc1ccc2[nH]c(=O)c(CN(Cc3nnnn3C3CCCC3)C3CCCCC3)cc2c1 | inconclusive: 50.1 µM [activator, single point] | 
40 | COc1ccccc1OCCCn1c(C2CC(=O)N(c3ccccc3Cl)C2)nc2ccccc21 (stereo not given) | inconclusive: 28.2 µM [activator, single point] | 
